Some of the results follow. Cut-off read from the data, not from the text of the source: active = 3.2 or more and inactive = the rest. Most of these values are background signal.
What was measured:
Test in all cases: enrichment score (SH2-bound / input frequency) (ratio); bacterial display of known human phosphotyrosine sites (pTyr-Var adds point mutants) read by sequencing; higher = stronger binding; tyrosines were phosphorylated by kinases first
Details in all cases: peptide library: pTyr-Var
SHP2 C-SH2 domain E139D = molecular target: SHP2 C-SH2 domain E139D
[1] = molecular target: SHP2 C-SH2 domain wild-type
SHP2 N-SH2 domain L43F = molecular target: SHP2 N-SH2 domain L43F
SHP2 N-SH2 domain T42A = molecular target: SHP2 N-SH2 domain T42A
SHP2 N-SH2 domain T52S = molecular target: SHP2 N-SH2 domain T52S
[2] = molecular target: SHP2 N-SH2 domain wild-type
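Note: displayed peptides selected on beads carrying the immobilized SH2 domain, with library peptides lacking any tyrosine serving as negative controls.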

Binder | enrichment score (SHP2 C-SH2 domain E139D) | enrichment score [1] | enrichment score (SHP2 N-SH2 domain L43F) | enrichment score (SHP2 N-SH2 domain T42A) | enrichment score (SHP2 N-SH2 domain T52S) | enrichment score [2]
RGVAHYILQTF [SLC39A4_Y359_T357A] | active: 3.34 | inactive: 2.6 | inactive: 2.44 | inactive: 2.05 | inactive: 2.14 | inactive: 2.49
PLQKTYNYNVL [SLC4A1_Y553] | inactive: 1.15 | inactive: 1.32 | inactive: 1.15 | inactive: 1.05 | inactive: 1.04 | inactive: 1.21
FIIFIYAMKKK [SLCO1B1_Y645_L643F_YF] | inactive: 0.811 | inactive: 0.357 | inactive: 0.471 | inactive: 0.819 | inactive: 0.726 | inactive: 0.599
ISSLPYMKMIF [SLC4A11_Y853_M848I] | active: 3.31 | active: 4.01 | active: 7.65 | active: 12.8 | active: 9.51 | inactive: 2.95
MSSLPYMKVIF [SLC4A11_Y853_M856V] | inactive: 2.2 | inactive: 2.63 | active: 6.85 | active: 11.6 | active: 9.39 | inactive: 2.66
ILLAGCLVMVI [SLC28A3_Y113_Y113C] | inactive: 1.62 | inactive: 2.24 | inactive: 1.75 | inactive: 1.89 | inactive: 1.69 | inactive: 2.27
ATATDYHTTSH [SLC4A1_Y46] | inactive: 0.478 | inactive: 0.511 | inactive: 0.422 | inactive: 0.527 | inactive: 0.59 | inactive: 0.649
PLQKTYNYNML [SLC4A1_Y553_V557M] | inactive: 0.895 | inactive: 0.605 | inactive: 0.846 | inactive: 1.56 | inactive: 0.727 | inactive: 0.565
PLQNTYNYNVL [SLC4A1_Y553_K551N] | inactive: 0.865 | inactive: 1.13 | inactive: 0.67 | inactive: 0.72 | inactive: 0.894 | inactive: 0.788
LLGFLYFFVCS [SLC34A2_Y109] | inactive: 2.94 | inactive: 2.7 | inactive: 3.04 | inactive: 2.34 | inactive: 2.59 | inactive: 2.9
CLGNQYVNVMN [SLC3A1_Y461_R456C] | inactive: 2.29 | inactive: 2.64 | inactive: 2.12 | inactive: 2.99 | inactive: 2.36 | inactive: 2.34
KLFFIYTSGTT [SLC27A4_Y245_YF] | inactive: 0.711 | inactive: 0.91 | inactive: 0.835 | inactive: 0.598 | inactive: 0.793 | inactive: 0.799
FSCLPYGRLAY [SLC52A2_Y305] | inactive: 0.788 | inactive: 0.841 | inactive: 0.589 | inactive: 0.563 | inactive: 0.591 | inactive: 0.72
VIEQSYNETWL [SLC2A4_Y56] | inactive: 0.685 | inactive: 0.627 | inactive: 0.781 | inactive: 0.528 | inactive: 0.862 | inactive: 0.649
FPPTHYIRRVP [SLC4A11_Y820_YF] | inactive: 0.275 | inactive: 0.278 | inactive: 0.267 | inactive: 0.378 | inactive: 0.291 | inactive: 0.417
LRRQDYQEILD [SLC35G2_Y403_K400R] | inactive: 0.294 | inactive: 0.341 | inactive: 0.439 | inactive: 0.554 | inactive: 0.444 | inactive: 0.411
PKEEPYKMQEK [SLC5A3_Y565_Q566K] | inactive: 0.757 | inactive: 0.462 | inactive: 0.516 | inactive: 0.702 | inactive: 0.449 | inactive: 1.84
QKINKYLTVPA [SLC9A1_Y683_N682K] | inactive: 1.32 | inactive: 0.952 | inactive: 1.62 | inactive: 1.13 | inactive: 1.08 | inactive: 0.977
ATATEYHTTSH [SLC4A1_Y46_D45E] | inactive: 0.497 | inactive: 0.628 | inactive: 0.553 | inactive: 0.431 | inactive: 0.622 | inactive: 0.67

Binder | enrichment score (SHP2 C-SH2 domain E139D) | enrichment score [1] | enrichment score (SHP2 N-SH2 domain L43F) | enrichment score (SHP2 N-SH2 domain T42A) | enrichment score (SHP2 N-SH2 domain T52S) | enrichment score [2]
PLQNTYNFNVL [SLC4A1_Y553_K551N_YF] | inactive: 0.866 | inactive: 0.896 | inactive: 0.833 | inactive: 0.706 | inactive: 0.967 | inactive: 0.998
ELQDDYEDTME [SLC4A1_Y8_M11T] | inactive: 0.595 | inactive: 0.594 | inactive: 0.528 | inactive: 0.543 | inactive: 0.579 | inactive: 0.733
RLGNQYVNVMN [SLC3A1_Y461] | active: 4.01 | active: 4.91 | active: 4.03 | active: 6.58 | active: 4.93 | active: 3.67
LRKQDYQEILD [SLC35G2_Y403] | inactive: 1.18 | inactive: 0.682 | inactive: 0.976 | inactive: 0.97 | active: 4.18 | inactive: 1.06
RLGNQHVNVMN [SLC3A1_Y461_Y461H] | inactive: 0.712 | inactive: 0.651 | inactive: 0.651 | inactive: 0.607 | inactive: 0.579 | inactive: 1.12
KLFFIYTPGTT [SLC27A4_Y245_S247P_YF] | inactive: 0.541 | inactive: 0.64 | inactive: 0.533 | inactive: 0.429 | inactive: 0.525 | inactive: 0.698
VVIVLYFSLWK [SLC6A2_Y249] | inactive: 0.638 | inactive: 0.643 | inactive: 0.591 | inactive: 0.512 | inactive: 0.794 | inactive: 0.698
GVKLTYGDAQS [SLC28A1_Y404_N409S] | inactive: 0.676 | inactive: 0.65 | inactive: 0.746 | inactive: 0.595 | inactive: 0.603 | inactive: 0.69
PLQKTYNHNVL [SLC4A1_Y553_Y555H] | inactive: 0.882 | inactive: 0.833 | inactive: 1.07 | inactive: 0.945 | inactive: 1.19 | inactive: 1.31
FSCLPYRRLAF [SLC52A2_Y305_G306R_YF] | inactive: 0.266 | inactive: 0.203 | inactive: 0.343 | inactive: 0.33 | inactive: 0.285 | inactive: 0.242
LHQSTYQCFDV [SLC7A14_Y693_R695C_YF] | inactive: 0.996 | inactive: 1 | inactive: 0.804 | inactive: 0.726 | inactive: 0.583 | inactive: 1.07
GVKLTYGDAQN [SLC28A1_Y404] | inactive: 0.728 | inactive: 0.732 | inactive: 0.753 | inactive: 0.711 | inactive: 0.798 | inactive: 0.853
VDSTEYEVASQ [SLC7A7_Y7] | inactive: 0.56 | inactive: 0.549 | inactive: 0.533 | inactive: 0.469 | inactive: 0.424 | inactive: 0.767
YPPTHYIRRMP [SLC4A11_Y820_V824M] | inactive: 0.184 | inactive: 0.256 | inactive: 0.34 | inactive: 0.266 | inactive: 0.215 | inactive: 0.269
LHQSTYQCYDV [SLC7A14_Y693_R695C] | inactive: 0.908 | inactive: 1.35 | inactive: 0.728 | inactive: 0.811 | inactive: 1.1 | inactive: 1.15
LHQSTYQRYDV [SLC7A14_Y693] | inactive: 0.653 | inactive: 0.803 | inactive: 0.645 | inactive: 0.718 | inactive: 0.627 | inactive: 0.574
HLGNQYVNVMN [SLC3A1_Y461_R456H] | active: 3.68 | active: 5.37 | active: 3.84 | active: 6.53 | active: 4.16 | active: 3.63
TDKLFYIFTPG [SLC27A4_Y243_S247P_YF] | inactive: 0.766 | inactive: 0.881 | inactive: 0.698 | inactive: 0.732 | inactive: 0.948 | inactive: 0.774

— the supplement of paper PMC10369915
